# Data reported in article PMC12136788.
# The list shows a part of the results.
# T1: UNK ZnF1-6 (called full-length) (human, UniProt Q9C0B0 30-357)
# T1 sequence: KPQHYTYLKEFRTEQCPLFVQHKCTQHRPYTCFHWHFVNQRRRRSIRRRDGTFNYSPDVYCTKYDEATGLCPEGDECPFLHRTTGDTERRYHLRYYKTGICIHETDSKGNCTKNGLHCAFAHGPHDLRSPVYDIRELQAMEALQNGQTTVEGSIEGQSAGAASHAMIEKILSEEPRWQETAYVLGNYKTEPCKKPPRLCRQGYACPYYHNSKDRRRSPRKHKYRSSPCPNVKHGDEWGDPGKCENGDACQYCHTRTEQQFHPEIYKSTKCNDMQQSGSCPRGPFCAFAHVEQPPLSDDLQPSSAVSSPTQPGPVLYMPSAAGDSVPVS
# B1: chr10:89213657:89213758:-|3pUTR|ENSG00000107798|msi1|total|mutant (ssRNA)
# RNA: GGGAGUUCUACAGUCCGACGAUCUUACAAUACUGUCCGGUGGACAAAAUGACAAUUGAUAUGUUUUUCUGAUAUAAUUACUUCCGCUGCACUAACAGUACAAUGCUUGUUAAUGGUUAAUACCGGCAGGGCGAAUACUACUUUCAACAGAGGAUUGAGCAUCA
# B2: chr19:10133403:10133440:-|3pUTR|ENSG00000130816|msi1_unk|FALSE|overlapping (ssRNA)
# RNA: GGGAGUUCUACAGUCCGACGAUCUUUUUUAUUAUGCAUUAUAUCAAAUCUACCACUGUAUGAGUGGAAAUUAAGACUUUAUGUAGUUUUUAUAUGUUGUAAUAUUUCUUCAAAUAAAUCUCUCCUAUAAACCACCCUGGGUGGCAACAGAGGAUUGAGCAUCA
# B3: chr1:61462620:61462721:+|3pUTR|ENSG00000162599|unk|total|mutant (ssRNA)
# RNA: GGGAGUUCUACAGUCCGACGAUCCUGUGGGCGUCCAUUCUUAUUCAACUAAAUCUCCACAGGUUUUUUGAGCUGGUGUGGAUCCGUUUAACUCUUGUAUUCAACCAUCCGUGCUACCACCUUCUCACAUUACAAUACAAUUACCAACAGAGGAUUGAGCAUCA
# B4: chr12:110551788:110551968:-|CDS|ENSG00000196850|control|control|control (ssRNA)
# RNA: GGGAGUUCUACAGUCCGACGAUCUUCUCAGGGACUUUAAUGCGGACGUGUGAACGUUUAGUAAAAGAAGGACGGUUCGUACCUAGUAAUCCCAUUGGAAUUCUCACCACAAGCUACUGUGAGUUGCUGCAAAAUAAAGUCCCUCAACAGAGGAUUGAGCAUCA
# B5: ENSG00000107863:be:win_2951|CDS|ENSG00000107863|bound_else_gene|NA|bound_elsewhere_windowed (ssRNA)
# RNA: GGGAGUUCUACAGUCCGACGAUCAGGAAGAGCAGCCCAUCAGUGUUAAUGCUUGCUUGAUAGACAUCUCUUACAGUGAGACCAAGAGGAAAAAUGUGUUUCGACUCACCACGUCCGACUGUGAAUGCCUGUUUCAGGCUGAAGCAACAGAGGAUUGAGCAUCA
# B6: chrX:71300841:71300885:+|3pUTR|ENSG00000147140|msi1_unk|FALSE|overlapping (ssRNA)
# RNA: GGGAGUUCUACAGUCCGACGAUCCCCCAUAUAUUACCCCUUCAUGUCCUAAAGAAGACAUUUUCUCUUAGAGAUUUUCAUUUUAGUGUAUCUUUAAAAAAAAAUCUUGUGUUAACUUGCCUCCAUCUUUUUCUUGGGUGAGGACAACAGAGGAUUGAGCAUCA
# Target: T1, UNK ZnF1-6 (called full-length)
# Assay: nsRBNS (natural sequence RNA bind-n-seq); RBNS binding buffer (assumed for nsRBNS): 25 mM Tris pH 7.5, 150 mM KCl, 3 mM MgCl2, 0.01% Triton X-100, 500 ug/ml BSA, 20 U/ml SUPERase-In, 4 C; UNK is unkempt and MSI1 is Musashi-1; names of the RNAs are library labels; protein concentration not given here; high values mean tight binding
row,Binder,binding signal
1,B1,0.418 enrichment R
2,B2,3.26 enrichment R
3,B3,0.442 enrichment R
4,B4,0.763 enrichment R
5,B5,0.57 enrichment R
6,B6,5.61 enrichment R
